Data: the supplement of paper PMC10126150
Sequences with one replicate were seen in a single cluster, so their values are uncertain.

Tested on: ATP
Assay: switch fluorescence ratio, 500 uM ATP over buffer (Cy3 cluster intensity, sum of 5 cycles each) (fold (ratio)); higher = stronger signal-on switching upon ATP binding; sequences stand for … in TCGTCGGCAGCGTCAGATGTGTATAAGAGACAGTTTTTTTTTTTTTTTTTTTTTTTTT…TC
Conditions: aptamer strand: ATP DNA aptamer (quencher-CACCTGGGGGAGTATTGCGGAGGAAGG + anchor), 100 nM annealed; ATP concentration: 500 uM; one replicate
Procedure, shortened: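 For every switch-domain sequence, the fluorescence ratio is the mean of per-cluster values, each being summed target-cycle Cy3 intensity over summed buffer-cycle Cy3 intensity. Clusters outside 100-1000 RFU were excluded. On a modified Illumina MiSeq flow-cell, the Cy3-labelled switching-strand clusters were annealed to 100 nM quencher-labelled ATP aptamer, imaged in selection buffer and then after 15 min with 500 uM ATP at 22 °C. Five such cycles were run, with NaOH stripping and re-annealing between them.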
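Also: ATP exposure 15 min at 22 °C before imaging.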

Sequence | switch fluorescence ratio
TCGCGGGTGC | 1.14
GTCATACATT | 0.999
GGCTTTGTCG | 0.94
ATTTGACCCG | 1.14
TACCGGCAT | 1.04
TCACAGAACA | 1.05
TTGGTGTCAA | 0.962
GAACCGCATT | 2.55
GCGGCAAT | 1.12
AGAGGCCATG | 0.979
ACGTCTGCAC | 1.48
ACCTCTCGCC | 1.7
GCATGCTCGG | 1
CGTGGCTCGT | 0.995
AAACATCTAG | 1.02
GGGGACTGAC | 1.18
GCCGGCGCAA | 2.26
GCCGGGCGAG | 1
CTCTTTCCAA | 1.07
TTGGTCTATT | 0.986
ACTAGCAACA | 1.14
ACGGTATGTC | 1.12
CGATCATGGG | 0.972
GGTATATAT | 0.928
TTATCTGCAA | 2.45
GTTTTGCGCC | 1.03

Sequence | switch fluorescence ratio
TCAACGCAGC | 1.59
TAGGACTTG | 0.97
TGAGGCTGGT | 0.985
GGGACAGTGA | 1.02
CATGTTCAG | 1.04
CCATCGTAGA | 0.981
TCCTACAACT | 1.02
ACTGTGAAGA | 1.03
CGGATCGTAT | 0.976
CTGCCACTTT | 1.05
TAAGCCTAAG | 0.992
CACTTGCTTA | 1.03
TAGATGGCAG | 1.02
AAAGAGCTAT | 0.986
CCGTACTCTT | 1.31
TTATTTGCAG | 0.98
GGGTCGAAGT | 1.01
ACGCGTTAGG | 1.02
AAATCGGCTT | 1.02
TGTTAGATGG | 1.01
TAAGTATCCT | 1.05
CCGTGAGGGG | 1.07
GGCGGACGTG | 0.961
AGGTGGGAAG | 0.952
GACTCCTGGT | 1.06
ACGCTCGGGA | 0.941

Sequence | switch fluorescence ratio
GTTATCCAGG | 1.33
TTTCATCACG | 1.01
TAAGCAGTAT | 1.25
ATGGGATACC | 0.991
TGCCAGCGTC | 1.03
GGGCCGCCGG | 1.07
GTTAGTATGT | 1.01
CCGCGCATCA | 3.92
CTTTTCTATT | 1.01
TGGCTGAATT | 0.991
GGACGCTTGG | 1.05
GCTTCTATAC | 1.9
AACGTGTTAA | 0.994
AGACTCATCA | 0.947
AGCAGGCTTC | 1.04
TTAACAGGTA | 0.957
CATGGGCTTA | 0.997
ACCACTATGT | 1.04
AAGTATGCGG | 0.945
GCATGTTGTT | 0.973
TGAATTAGTC | 1
GCCGGTCCTT | 0.988
TTCCGTTCTT | 0.951
ATCAGGGAGC | 1.03
AGCCTGCTGG | 1.01
TTGCGGTTA | 0.947

Sequence | switch fluorescence ratio
AGTGATCTCG | 1.02
AGTATATGCA | 0.987
ACTGATGAAC | 0.991
GGTTACGGAT | 0.965
TAAGAACAG | 0.993
AGAAGTAAAG | 1.04
CTACGCTGCG | 1.08
CAAAAACG | 1.06
CAATAAATG | 0.948
ATCAGTCAGC | 0.972
GCGGGGGTC | 0.981
TCTCGGTGCG | 0.996
GCAGCTGCTC | 0.978
ACTTTTATCA | 0.955
AATTTTCGAG | 1.02
AGTAGATTGT | 0.96
AGGTTAATGC | 1.2
CAGTGATGTC | 0.978
ACATTGGGTA | 0.935
TCTAATACGC | 1.03
AATAGCCATC | 1.03
TTTAATTGGA | 1.02
TTGTAGGCGC | 1.03
TTGCGTGAGT | 1.04
GGTCTATTAG | 0.981
AGACGTCGAT | 1.05

Sequence | switch fluorescence ratio
TAATATGAGT | 1.01
AGATTCTAGC | 1
TTAAACGTTG | 0.982
CATAATCAGC | 0.98
TATGTGCTGA | 0.98
TGCAGTTGAA | 1.13
CCACAGGGCC | 1.19
TAGGTTCGTT | 0.997
AGTGCAACAT | 0.989
GACAAATTAA | 1.05
CGTCTGTTTC | 1.06
ATGTGCAGAG | 1.03
GGTTCTAAAA | 0.959
AAGCTAGTAC | 2.94
GCAGCTGCAC | 1.04
ACCGGCAAGA | 1.08
CCGATGGTGA | 1.68
TTTCATAGCG | 1.01
ATTGTCATTG | 1.03
GAGTACAGGG | 1
AGCTGCAAAT | 1.02
GCACATTCCA | 1.01
AGCGCGCTTT | 1.03
TAATGAAAG | 1.01
TGGTTGCAAG | 0.939
ATTAGTCGAG | 0.994

Sequence | switch fluorescence ratio
TCAGTTTCCC | 1.01
ACCACAAGGG | 1.06
ACGAGTGAGG | 1.03
ATACAGCTTT | 1
TAGTTGAAGA | 1.01
CATTTAACTG | 1.01
AGGTGTGG | 0.98
ATACAGCTGC | 1.03
GTACTGGC | 1.04
TCAAGGGCCT | 1.04
GCACGATCGT | 0.97
CTACTGATGA | 1.02
CGTACGATCG | 1.02
GCCGTCACAT | 1
TCTTGCGACA | 1.01
CTGGCATCTG | 0.988
GCCTTGAAGA | 1
GGGGCCCCAC | 1.02
AGAGTAAGGG | 0.972
CAGTTTTCAT | 0.964
AACGATGTGC | 1.12
GGGGTCGCGT | 0.999
GCCGGAGAAG | 0.993
